Data published in PubChem BioAssay AID1956 (SRMLSC, 2009).
This is one part of the list. The main result of the screen is listed elsewhere. These columns were measured beside it and carry no call.

experiment: compounds boosting herpes simplex virus growth – fold increase, host cell viability (AID 1956); conditions: HSV replication augmentation in cells; fold increase: measured here: primary screen fold increase 10 uM, at 10 µM, stronger effect = higher value; viability: measured here: host cell viability series, at 25 µM, stronger effect = lower value; further: tested in PC3 cells

SMILES | fold increase | viability
CCOC(=O)c1nnsc1-c1ccc(-c2snnc2C(=O)OCC)cc1 | 1.41 | 99.6%
COc1ccccc1NC(=O)c1ccc(C)s1 | 1.47 | 93.8%
O=C(O)c1cc(-c2ccc(/C=C3/SC(=S)N(Cc4ccccc4)C3=O)o2)ccc1Cl | 1.89 | 92.1%
CCN(CC)c1ccc2cc(-c3nc4ccccc4[nH]3)c(=O)oc2c1 | 7.07 | 83.6%
c1ccc2c(c1)NCCS2 | 2.04 | 97.1%
CN1C(=O)CC(c2ccco2)Sc2ccccc21 (stereo unspecified) | 1.51 | 78.8%
Cn1c(C(=O)Nc2ccc3c(c2)OCCO3)cc2c(=O)n(C)c3ccccc3c21 | 1.33 | 77.3%
COC(=O)C[n+]1cccc2ccccc21 | 2.07 | 105%
CC(=O)Nc1ccc(C(=O)Cn2nnc3ccccc3c2=O)cc1 | 1.35 | 94.8%
O=C(CSc1nc2ccccc2s1)NNC(=S)Nc1ccc(Cl)cc1 | 1.35 | 
CN(C)C(=N)c1n[nH]nc1SCc1ccc(Cl)c(Cl)c1 | 1.36 | 83.6%
CCOC(=O)C(NC(=O)c1ccc(F)cc1)(Nc1sc2c(c1C(N)=O)CCC2)C(F)(F)F (stereo unspecified) | 1.68 | 89.9%
CC1=CC(C)(C)Nc2ccc(OC(=O)C(Cc3ccccc3)N3C(=O)C4CCCCC4C3=O)cc21 (stereo unspecified) | 1.32 | 97.2%
COCCCNC(=O)CC(=O)N/N=C\c1ccc(SC)cc1 | 1.32 | 
CCc1cccc(CC)c1NC(=S)NCc1nc2ccccc2[nH]1 | 1.39 | 102%
CC(C)c1nnc(N2C(=O)C(O)=C(C(=O)c3cccs3)C2c2ccccc2)s1 (stereo unspecified) | 8.21 | 98.5%
COc1cc(C(=O)NCCC(=O)NCCN2CCOCC2)cc(OC)c1OC | 1.51 | 99.5%
O=C(/C=C/c1ccco1)Nc1cccc2cccnc12 | 1.43 | 99.4%
CC(C)N1CC=C2C(C#N)=C(N)C(C#N)(C#N)[C@H](c3ccoc3)[C@H]2C1 | 1.26 | 
CCN1CC=C2C(C#N)=C(N)C(C#N)(C#N)[C@H](c3ccoc3)[C@H]2C1 | 1.65 | 87.5%
O=C1C(=O)N(c2ccccc2)c2ccccc21 | 1.33 | 94.9%
OCCCc1nc2n(n1)C(c1cccs1)C=C(c1ccccc1)N2 (stereo unspecified) | 2.69 | 87.5%
CN1CCc2c(sc3c2C(=O)NC(c2cn(Cc4ccccc4)c4ccccc24)N3)C1 (stereo unspecified) | 1.34 | 83.8%
COc1cc(NC(=S)N2CCN(C(c3ccccc3)c3ccccc3)CC2)cc(OC)c1 | 1.5 | 

SMILES | fold increase | viability
Cc1cccc(N=C2NC(=O)/C(=C/C=C/c3ccco3)S2)c1 | 1.33 | 69.8%
Cc1ccc2nc(SCC(=O)Nc3ccc4sc(C)nc4c3)c(C#N)cc2c1 | 2.49 | 91.4%
Cc1ccc(S(=O)(=O)N2CCC[C@H]2C(=O)OCC(=O)c2ccc3c(c2)NC(=O)CO3)cc1 | 1.46 | 96.1%
O=C(CCN1C(=O)/C(=C\c2cccs2)SC1=S)Nc1ccccn1 | 1.39 | 92.4%
CC(C)CC1=NN2C(=N)/C(=C\c3coc4ccccc4c3=O)C(=O)N=C2S1 | 1.67 | 97.5%
CCOC(=O)C1=C(CSc2nc(-c3ccccc3)ccc2C#N)OC(N)=C(C#N)C1c1ccccc1 (stereo unspecified) | 1.51 | 108%
Cc1cccc(S(=O)(=O)c2c(N)n(Cc3ccco3)c3nc4ccccc4nc23)c1 | 2.01 | 90.4%
CN1\C(=C/C=C/C=C/C=[N+](C)C)C(C)(C)c2ccccc21 | 2.06 | 54.9%
CCN(CC)c1ccc(/C=C/C(=O)C2C(=O)C=C(C)OC2=O)cc1 (stereo unspecified) | 8.97 | 
COc1ccc(S(=O)(=O)C(C#N)c2nc3ccccc3nc2N2CCCC(C)C2)cc1 (stereo unspecified) | 2.32 | 96%
O=c1nc2c(O)cccn2c2c1c(=O)[nH]c1ccccc12 | 1.85 | 
CCOC(=O)c1cnc(SCc2nc(N)nc(Nc3ccccc3)n2)nc1N | 1.01 | 
Cc1nc(S/C(=C\c2ccc(-c3ccc(C(=O)O)c(Cl)c3)o2)C(=O)O)n[nH]1 | 1.44 | 97.8%
CCC1OC2(C)OC(=N)C1(C#N)C(C#N)(C#N)C2c1ccccc1 (stereo unspecified) | 1.44 | 97.4%
CCc1ccc(CC2S/C(=C(\C#N)C(C)=O)NC2=O)cc1 (stereo unspecified) | 1.46 | 87.5%
O=C(OCCN1C(=O)c2cccc3c(N4CCOCC4)ccc(c23)C1=O)c1cccc(Cl)c1 | 8.37 | 61.2%
O=S(=O)(Nc1ccccc1)c1ccc2c(c1)CCO2 | 1.32 | 
N#CC1=C(N)SC(N)=C(C#N)C1c1ccc(C(F)(F)F)cc1 | 1.86 | 96.6%
CC[N+]1=C(C)C(C)(C)c2cc(C)ccc21 | 1.32 | 
CCCOc1ccc(CC(=O)NNC(=S)Nc2ccccc2)cc1Br | 1.34 | 
NC(=O)N/N=C/c1c(O)ccc2oc3c(c12)CCCC3 | 1.37 | 107%
COc1cc(/C=C(\C#N)c2ccccn2)cc(OC)c1O | 9.03 | 72%
COc1ccc(C)cc1NC(=O)COC(=O)c1ccc([N+](=O)[O-])o1 | 1.33 | 93.7%
COc1ccc(Cn2ccnc2CO)cc1[N+](=O)[O-] | 1.56 | 92.4%
